The source gives no read counts; variants with many changes may rest on few reads.
B1: LINE1-mini (parent)
chain: GGCAGAGCUCAACACAGCGUGGCAAAGUGGCUGUGGCUAGACUGCC

Variants of: B1
Assay: self-cleavage, relative activity (ratio to wild type); higher = more cleavage; in vitro, sequencing; the parent is a self-cleaving ribozyme

Q: For GGCAGAGCUCAACACAGCAUGGCAAAUUGGCUGUGGCUAGUCUGCC, which self-cleavage is on record?
A: Its self-cleavage is 0.41.

Q: For GGCAGAGCUCAACACAGCAUGGCAAAUUGGCUGGGGCUAGACAGCC, which self-cleavage is on record?
A: Its self-cleavage is 0.01.

Q: With GGCAGAGCUCAACACAGCAUGGCAAAGUAGCUGGGGCUACACAGCC as the variant, how does the self-cleavage read?
A: Its self-cleavage is 0.03.

Q: With GGCAGAGCUCAACACAGCAUGGCAAAGUCGGUGUGGCAAGUCUGCC as the variant, how does the self-cleavage read?
A: Its self-cleavage is 0.06.

Q: With GGCAGAGCUCAACACAGCAUGGCAAAGUUGCUGUGGCUAGACGGCC as the variant, how does the self-cleavage read?
A: Its self-cleavage is 0.

Q: Which self-cleavage does the source give for GGCAGAGCUCAACACAGCAUGGCAAAGUGACUGCGCCUAGACUGCC here?
A: The self-cleavage was 0.07.

Q: Which self-cleavage does the source give for GGCAGAGCUCAACACAGCAUGGCAAAGUGGCUGUAGAUAGACUGCC here?
A: Its self-cleavage is 0.14.

Q: For GGCAGAGCUCAACACAGCAUGGCAAAGUGGCUGUAGAGAGAAUGCC, which self-cleavage is on record?
A: The self-cleavage was 0.02.

Q: With GGCAGAGCUCAACACAGCAAGGAAAAGUUGCUGGGGCUAGACUGCC as the variant, how does the self-cleavage read?
A: Its self-cleavage is 0.13.

Q: With GGCAGAGCUCAACACAGCAAUGCAAAGUGGCUAUGGCUACACUGCC as the variant, how does the self-cleavage read?
A: Its self-cleavage is 0.04.

Q: Which self-cleavage does the source give for GGCAGAGCUCAACACAGCAAGGCAAAGUGGCGGUAGUCAGACUGCA here?
A: The self-cleavage was 0.06.

Q: For GGCAGAGCUCAACACAGCACGGCAAAGUGGCUGUGGGUAGACUGCC, which self-cleavage is on record?
A: Its self-cleavage is 0.36.

Q: For GGCAGAGCUCAACACAGCACGGCAAAGUGGCUGUGGCCAGACUGUC, which self-cleavage is on record?
A: The self-cleavage was 0.75.

Q: For GGCAGAGCUCAACACAGCAUGGCAAAGAGGCUGUGGCUAGAGUGCC, which self-cleavage is on record?
A: The self-cleavage was 0.02.

Q: With GGCAGAGCUCAACACAGCAUGGCAAAGAGGCUUUGGCUAGACUGCC as the variant, how does the self-cleavage read?
A: The self-cleavage was 0.11.

Q: With GGCAGAGCUCAACACAGCAUGGCAAAGAGGCAGUGGCUAGACUGCC as the variant, how does the self-cleavage read?
A: Its self-cleavage is 0.31.

Q: With GGCAGAGCUCAACACAGCAUGGCAAAGAGGCUGUGGCGAGACUGCC as the variant, how does the self-cleavage read?
A: Its self-cleavage is 0.02.

Q: With GGCAGAGCUCAACACAGCAUGGCAAAGUGGCACUGGCUAGACUGCC as the variant, how does the self-cleavage read?
A: The self-cleavage was 0.03.

Q: With GGCAGAGCUCAACACAGCAUGGCAAAGUGGCUGCGGCUAGAGUGCC as the variant, how does the self-cleavage read?
A: Its self-cleavage is 0.05.

Q: Which self-cleavage does the source give for GGCAGAGCUCAACACAGCAUGGCAAAGUGGCUGCGGCUAGAUUGCC here?
A: Its self-cleavage is 0.05.

Q: For GGCAGAGCUCAACACAGCAUGGCAAAGUGGCUGCGGCUAGACUGUC, which self-cleavage is on record?
A: Its self-cleavage is 0.43.

Q: For GGCAGAGCUCAACACAGCAUGGCAAAGUGGCUGUGGCUAGACAGAC, which self-cleavage is on record?
A: The self-cleavage was 0.03.

Q: For GGCAGAGCUCAACACAGCCUGGCCAAGUGACUGUGGCUAGACUGCC, which self-cleavage is on record?
A: Its self-cleavage is 0.19.

Q: With GGCAGAGCUCAACACAGCCUGGCGUAGUGGCUGUGGCUAGACUGUC as the variant, how does the self-cleavage read?
A: The self-cleavage was 0.29.

Q: Which self-cleavage does the source give for GGCAGAGCUCAACACAGCCUGGCGAACUGGCUGCGGCUGGACUGCC here?
A: Its self-cleavage is 0.01.

Q: With GGCAGAGCUCAACACAGCCUGGCUAAGUGGCGGUGGCUAGACUGAC as the variant, how does the self-cleavage read?
A: The self-cleavage was 0.12.

Q: For GGCAGAGCUCAACACAGCCUGGCACAGUGUCUGUGGCUAGACUGCC, which self-cleavage is on record?
A: Its self-cleavage is 0.48.

Q: For GGCAGAGCUCAACACAGCCUGGCAGAGUAUCUGUGGCUAGACUGCC, which self-cleavage is on record?
A: The self-cleavage was 0.31.

Q: Which self-cleavage does the source give for GGCAGAGCUCAACACAGCCUGGCAUAGUGGGUGUGGCUAGACUGCU here?
A: Its self-cleavage is 0.55.

Q: For GGCAGAGCUCAACACAGCCUGGCAUAGUAGCGGUGGCUAGACUGCA, which self-cleavage is on record?
A: Its self-cleavage is 0.22.

Q: With GGCAGAGCUCAACACAGCCUGGCAUAGUGACUGUGGCUAGAGUGCC as the variant, how does the self-cleavage read?
A: The self-cleavage was 0.05.

Q: With GGCAGAGCUCAACACAGCCUGGCAUAGUGGCGGUGGCUAGACUGCC as the variant, how does the self-cleavage read?
A: Its self-cleavage is 0.21.

Q: For GGCAGAGCUCAACACAGCCUGGCAAUGUGGAUGUGUCUAGACUGCC, which self-cleavage is on record?
A: Its self-cleavage is 0.03.

Q: Which self-cleavage does the source give for GGCAGAGCUCAACACAGCCUGGCAAUGUCGCUGUGGCUAGACUGCC here?
A: Its self-cleavage is 0.29.

Q: For GGCAGAGCUCAACACAGCCUGGCAAAGUGGCUGUGGCUUGACUGCU, which self-cleavage is on record?
A: Its self-cleavage is 0.07.

Q: For GGCAGAGCUCAACACAGCCUGGAAUAGUGGCUGUGGCUAGACUGCC, which self-cleavage is on record?
A: Its self-cleavage is 0.1.

Q: Which self-cleavage does the source give for GGCAGAGCUCAACACAGCCUGGGAAUGUAGCUGUGGCUAGACUGCC here?
A: The self-cleavage was 2.69.

Q: Which self-cleavage does the source give for GGCAGAGCUCAACACAGCCUGGGAAAGUGGCUGUGAAUAGACUGCC here?
A: The self-cleavage was 0.01.

Q: For GGCAGAGCUCAACACAGCCUGGUAAAGUGGAUGUGGAUAGACUGCA, which self-cleavage is on record?
A: Its self-cleavage is 0.02.

Q: Which self-cleavage does the source give for GGCAGAGCUCAACACAGCCUGGUAAAGUGGCUGUGGCUAGACAGCC here?
A: The self-cleavage was 0.

Q: For GGCAGAGCUCAACACAGCCUGGCAAAGUGGAUGUGGCUAGACUGCU, which self-cleavage is on record?
A: Its self-cleavage is 0.91.

Q: For GGCAGAGCUCAACACAGCCUGGCAAAGUGGAUUUGGCUAGACUGCC, which self-cleavage is on record?
A: Its self-cleavage is 0.07.

Q: For GGCAGAGCUCAACACAGCCUGGCAAAGUGGGUGUGGUUAGACUGCC, which self-cleavage is on record?
A: Its self-cleavage is 0.05.

Q: With GGCAGAGCUCAACACAGCCUGGCAAAGUGGCUGUGGGUACACUGCC as the variant, how does the self-cleavage read?
A: The self-cleavage was 0.05.

Q: With GGCAGAGCUCAACACAGCCUGGCAAAGUGGCUGUGGGUAGACUUCC as the variant, how does the self-cleavage read?
A: The self-cleavage was 0.01.

Q: For GGCAGAGCUCAACACAGCCUAGAAAUGUGGCUGUGGCUAGACUGCC, which self-cleavage is on record?
A: Its self-cleavage is 0.31.

Q: Which self-cleavage does the source give for GGCAGAGCUCAACACAGCCUAGCAAAGUGUCGGUGGCUAGACUGCC here?
A: The self-cleavage was 0.27.

Q: For GGCAGAGCUCAACACAGCCUCGCAAAGUGGCUGUGACUAGAGUGCC, which self-cleavage is on record?
A: The self-cleavage was 0.01.

Q: With GGCAGAGCUCAACACAGCCUUGCAAACUGGCUGUGGAUAGACUGCC as the variant, how does the self-cleavage read?
A: Its self-cleavage is 0.41.

Q: For GGCAGAGCUCAACACAGCCUGACAAAGUGGCUGUGGCUAGACUACC, which self-cleavage is on record?
A: The self-cleavage was 0.14.

Q: For GGCAGAGCUCAACACAGCCUGGCAAAAUCGCUGUGGCUAGACUGCC, which self-cleavage is on record?
A: The self-cleavage was 0.25.

Q: With GGCAGAGCUCAACACAGCCUGGCAAAAUGUCUGGGGCUAGACUGCC as the variant, how does the self-cleavage read?
A: The self-cleavage was 0.05.

Q: Which self-cleavage does the source give for GGCAGAGCUCAACACAGCCUGGCAAAAUGGCUGUGGCUAGACUUCC here?
A: Its self-cleavage is 0.26.

Q: For GGCAGAGCUCAACACAGCCUGGCAAACUGGCUGUGGGUAGACUGCC, which self-cleavage is on record?
A: The self-cleavage was 0.02.

Q: For GGCAGAGCUCAACACAGCCUGGCAAAUUGGAUGUGGCUAGACUGCC, which self-cleavage is on record?
A: The self-cleavage was 1.08.

Q: For GGCAGAGCUCAACACAGCCUGGCAAAUUGGCUCUGGCUAGACUGCC, which self-cleavage is on record?
A: The self-cleavage was 0.07.

— the RNAGym collection of RNA variant scans (doi:10.7554/elife.90254)
